In the supplement of paper PMC12067093, “Discovery and optimisation of a covalent ligand for TRIM25 and its application to targeted protein ubiquitination” (Chemical Science, 2025):
About 21,000 targets were measured; listed, in parts, are those with the largest changes and a random draw of the rest.

Compound: Cc1cc(ccc1-c1ccccc1)C(=O)N1CCCN(CC1)C(=O)CCl [compound 10]
Assay: probe-labelled cysteine peptide fold change vs DMSO (competition) (log2 fold change); higher = less target engagement (more negative = stronger competition)
Conditions: THP-1, incubation time: 4 h
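Further: competitive profiling in live THP-1 cells: cysteine peptides tagged with an iodoacetamide desthiobiotin (IA-DTB) probe, intensity after compound treatment relative to DMSO-treated cells.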

Sequence of UniProt Q13075 (Q13075 whole entry, looked up): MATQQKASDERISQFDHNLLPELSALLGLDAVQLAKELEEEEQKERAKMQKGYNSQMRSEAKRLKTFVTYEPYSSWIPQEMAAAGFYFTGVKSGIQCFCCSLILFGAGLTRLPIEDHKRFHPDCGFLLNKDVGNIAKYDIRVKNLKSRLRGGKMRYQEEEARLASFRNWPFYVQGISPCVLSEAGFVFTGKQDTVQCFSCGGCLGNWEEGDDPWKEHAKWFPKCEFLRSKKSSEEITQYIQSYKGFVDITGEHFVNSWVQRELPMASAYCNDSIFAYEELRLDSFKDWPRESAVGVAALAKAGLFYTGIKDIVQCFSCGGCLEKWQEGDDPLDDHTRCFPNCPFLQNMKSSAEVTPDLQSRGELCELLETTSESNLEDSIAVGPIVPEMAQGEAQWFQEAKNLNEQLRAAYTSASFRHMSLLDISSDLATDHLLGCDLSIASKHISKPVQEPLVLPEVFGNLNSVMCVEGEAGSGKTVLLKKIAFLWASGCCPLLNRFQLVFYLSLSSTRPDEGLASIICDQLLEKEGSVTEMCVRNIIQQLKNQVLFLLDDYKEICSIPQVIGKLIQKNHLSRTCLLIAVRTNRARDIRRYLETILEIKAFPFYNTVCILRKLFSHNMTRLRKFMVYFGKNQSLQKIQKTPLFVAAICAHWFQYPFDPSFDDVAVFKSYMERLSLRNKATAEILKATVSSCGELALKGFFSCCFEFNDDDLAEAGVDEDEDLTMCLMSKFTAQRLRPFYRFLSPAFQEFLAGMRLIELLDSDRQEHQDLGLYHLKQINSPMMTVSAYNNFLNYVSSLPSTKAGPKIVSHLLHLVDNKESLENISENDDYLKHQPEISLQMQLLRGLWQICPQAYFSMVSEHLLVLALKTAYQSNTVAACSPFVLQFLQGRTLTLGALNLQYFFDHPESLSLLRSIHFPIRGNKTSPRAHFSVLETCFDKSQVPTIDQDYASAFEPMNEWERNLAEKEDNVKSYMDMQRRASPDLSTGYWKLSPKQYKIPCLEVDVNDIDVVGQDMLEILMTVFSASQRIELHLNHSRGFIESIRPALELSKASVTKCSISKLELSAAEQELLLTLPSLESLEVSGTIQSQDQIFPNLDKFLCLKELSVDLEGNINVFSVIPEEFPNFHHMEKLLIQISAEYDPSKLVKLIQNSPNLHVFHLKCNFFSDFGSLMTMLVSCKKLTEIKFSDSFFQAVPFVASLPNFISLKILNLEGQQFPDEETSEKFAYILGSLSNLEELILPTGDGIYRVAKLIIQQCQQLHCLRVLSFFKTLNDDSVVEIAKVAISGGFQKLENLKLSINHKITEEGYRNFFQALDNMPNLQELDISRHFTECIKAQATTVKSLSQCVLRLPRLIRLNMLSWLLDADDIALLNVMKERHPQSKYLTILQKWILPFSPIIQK
Sequence of UniProt Q9NVX2 (Q9NVX2 whole entry, looked up): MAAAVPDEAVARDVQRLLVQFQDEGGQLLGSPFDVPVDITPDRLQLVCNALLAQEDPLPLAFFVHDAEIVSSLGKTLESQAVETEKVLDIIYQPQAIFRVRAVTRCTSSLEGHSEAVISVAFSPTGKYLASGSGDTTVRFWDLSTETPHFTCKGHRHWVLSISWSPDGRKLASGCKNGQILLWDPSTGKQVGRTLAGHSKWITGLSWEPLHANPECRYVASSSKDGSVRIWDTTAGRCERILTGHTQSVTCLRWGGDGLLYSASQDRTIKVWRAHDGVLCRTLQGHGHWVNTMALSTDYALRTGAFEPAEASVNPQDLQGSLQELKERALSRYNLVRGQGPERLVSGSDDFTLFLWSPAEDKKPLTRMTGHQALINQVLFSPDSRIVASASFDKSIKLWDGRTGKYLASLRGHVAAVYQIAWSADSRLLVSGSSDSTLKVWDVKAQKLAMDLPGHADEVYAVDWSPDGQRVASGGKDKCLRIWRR
Sequence of UniProt Q9Y314 (Q9Y314 whole entry): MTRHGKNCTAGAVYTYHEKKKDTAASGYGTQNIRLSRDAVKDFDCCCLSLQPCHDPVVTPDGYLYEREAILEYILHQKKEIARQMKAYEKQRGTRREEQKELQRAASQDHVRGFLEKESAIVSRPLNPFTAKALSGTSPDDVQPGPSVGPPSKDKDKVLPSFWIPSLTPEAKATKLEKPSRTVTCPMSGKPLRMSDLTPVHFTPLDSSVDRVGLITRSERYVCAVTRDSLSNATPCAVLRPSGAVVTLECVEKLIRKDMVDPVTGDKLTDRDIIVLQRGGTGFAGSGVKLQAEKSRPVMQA
Sequence of UniProt Q15021 (Q15021 whole entry, looked up): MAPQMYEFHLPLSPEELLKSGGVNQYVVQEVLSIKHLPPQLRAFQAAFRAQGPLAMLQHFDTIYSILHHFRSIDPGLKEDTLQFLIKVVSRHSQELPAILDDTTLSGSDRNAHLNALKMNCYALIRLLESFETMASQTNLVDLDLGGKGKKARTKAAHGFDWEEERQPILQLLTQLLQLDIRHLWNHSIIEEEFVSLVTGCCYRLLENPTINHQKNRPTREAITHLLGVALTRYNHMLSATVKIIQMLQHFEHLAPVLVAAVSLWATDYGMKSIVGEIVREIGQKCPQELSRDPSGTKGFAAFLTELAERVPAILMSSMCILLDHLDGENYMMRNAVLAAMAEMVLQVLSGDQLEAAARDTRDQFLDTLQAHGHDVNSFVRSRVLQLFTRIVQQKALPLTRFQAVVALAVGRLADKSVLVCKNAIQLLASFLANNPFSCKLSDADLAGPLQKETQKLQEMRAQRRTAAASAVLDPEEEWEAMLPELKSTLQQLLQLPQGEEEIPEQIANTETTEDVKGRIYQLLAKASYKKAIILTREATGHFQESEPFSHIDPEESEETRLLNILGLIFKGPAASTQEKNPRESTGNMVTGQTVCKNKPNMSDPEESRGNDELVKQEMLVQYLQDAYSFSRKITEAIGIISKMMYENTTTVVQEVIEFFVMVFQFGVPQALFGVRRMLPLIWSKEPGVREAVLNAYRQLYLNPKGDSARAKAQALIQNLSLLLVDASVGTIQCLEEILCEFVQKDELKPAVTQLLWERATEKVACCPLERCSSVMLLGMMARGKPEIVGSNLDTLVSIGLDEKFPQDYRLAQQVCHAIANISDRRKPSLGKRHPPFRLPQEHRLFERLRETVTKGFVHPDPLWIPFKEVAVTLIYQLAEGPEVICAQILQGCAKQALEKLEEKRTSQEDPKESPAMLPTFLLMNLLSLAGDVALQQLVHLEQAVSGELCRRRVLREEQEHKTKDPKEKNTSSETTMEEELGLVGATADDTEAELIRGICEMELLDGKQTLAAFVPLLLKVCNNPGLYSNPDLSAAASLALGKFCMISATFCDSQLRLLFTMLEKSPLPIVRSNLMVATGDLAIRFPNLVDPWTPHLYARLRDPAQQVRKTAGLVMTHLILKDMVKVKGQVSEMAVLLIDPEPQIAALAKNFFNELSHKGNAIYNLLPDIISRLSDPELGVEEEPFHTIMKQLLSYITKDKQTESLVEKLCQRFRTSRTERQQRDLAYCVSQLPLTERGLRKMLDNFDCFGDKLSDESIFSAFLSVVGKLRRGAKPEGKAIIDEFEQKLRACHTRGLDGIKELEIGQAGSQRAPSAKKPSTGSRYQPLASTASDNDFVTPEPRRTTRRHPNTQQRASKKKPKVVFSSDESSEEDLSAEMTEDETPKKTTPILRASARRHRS
Sequence of UniProt Q8NDH3 (Q8NDH3 whole entry, looked up): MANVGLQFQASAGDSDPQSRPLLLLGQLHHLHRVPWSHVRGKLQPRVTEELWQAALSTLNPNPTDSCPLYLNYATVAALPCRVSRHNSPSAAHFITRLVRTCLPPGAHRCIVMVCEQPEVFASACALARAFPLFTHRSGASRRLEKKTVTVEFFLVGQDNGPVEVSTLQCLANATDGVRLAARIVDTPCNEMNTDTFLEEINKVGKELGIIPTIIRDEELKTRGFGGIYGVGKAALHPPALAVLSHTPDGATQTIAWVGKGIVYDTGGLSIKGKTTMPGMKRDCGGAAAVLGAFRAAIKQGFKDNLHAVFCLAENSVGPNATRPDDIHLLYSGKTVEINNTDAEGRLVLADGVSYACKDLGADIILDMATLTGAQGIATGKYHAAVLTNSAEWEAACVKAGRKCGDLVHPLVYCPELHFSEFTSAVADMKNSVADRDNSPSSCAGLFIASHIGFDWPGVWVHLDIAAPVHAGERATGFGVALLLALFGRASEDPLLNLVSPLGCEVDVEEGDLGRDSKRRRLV
Sequence of UniProt Q01968 (Q01968 whole entry, looked up): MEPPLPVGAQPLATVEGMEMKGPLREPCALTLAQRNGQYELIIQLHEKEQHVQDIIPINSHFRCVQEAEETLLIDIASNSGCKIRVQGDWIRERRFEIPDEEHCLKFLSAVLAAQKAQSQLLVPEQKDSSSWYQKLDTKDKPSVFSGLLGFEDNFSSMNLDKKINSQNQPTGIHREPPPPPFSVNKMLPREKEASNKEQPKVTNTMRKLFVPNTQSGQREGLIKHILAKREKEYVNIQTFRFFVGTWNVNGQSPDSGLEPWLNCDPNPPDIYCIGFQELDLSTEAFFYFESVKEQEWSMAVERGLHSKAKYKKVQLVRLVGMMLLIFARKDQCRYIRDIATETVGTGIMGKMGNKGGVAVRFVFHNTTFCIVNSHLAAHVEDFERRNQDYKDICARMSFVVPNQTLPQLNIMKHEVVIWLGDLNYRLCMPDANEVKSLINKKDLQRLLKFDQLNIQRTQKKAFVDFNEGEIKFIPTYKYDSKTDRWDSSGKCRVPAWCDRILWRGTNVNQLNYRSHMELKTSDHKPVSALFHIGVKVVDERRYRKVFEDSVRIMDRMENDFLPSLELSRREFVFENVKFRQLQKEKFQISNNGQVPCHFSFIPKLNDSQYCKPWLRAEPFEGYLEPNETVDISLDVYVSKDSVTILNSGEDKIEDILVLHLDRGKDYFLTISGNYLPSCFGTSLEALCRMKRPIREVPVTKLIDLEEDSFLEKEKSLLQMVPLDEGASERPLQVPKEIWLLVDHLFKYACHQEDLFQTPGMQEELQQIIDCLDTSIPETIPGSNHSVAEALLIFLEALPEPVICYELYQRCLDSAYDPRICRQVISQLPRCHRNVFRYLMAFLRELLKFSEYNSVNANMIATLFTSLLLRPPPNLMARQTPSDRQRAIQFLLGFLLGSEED

Q: Which “probe-labelled cysteine peptide fold change” value (10 µM) does the source give for “PAPSS2_O95340_497_STIVAIFPSPMLYAGPTEVQWHCR (UniProt O95340)” here?
A: 0.259

Q: And the “probe-labelled cysteine peptide fold change” value (50 µM)?
A: 0.286

Q: How did the “probe-labelled cysteine peptide fold change” value (10 µM) turn out when “NAT10_Q9H0A0_255_ESLQDTQPVGVLVDCCK (UniProt Q9H0A0)” was run?
A: 0.232

Q: What about the “probe-labelled cysteine peptide fold change” value (50 µM) of the same target?
A: -0.332

Q: For “OGFR_Q9NZT2_87_HNYPDLVERDCNGDTPNLSFYR (UniProt Q9NZT2)”, which “probe-labelled cysteine peptide fold change” value (10 µM) is on record?
A: -0.169

Q: And the “probe-labelled cysteine peptide fold change” value (50 µM)?
A: -0.149

Q: “OCIAD2_Q56VL3_130+137_HCLLTCEECK (UniProt Q56VL3)” was tested. Which “probe-labelled cysteine peptide fold change” value (10 µM) did it give?
A: -0.0269

Q: What about the “probe-labelled cysteine peptide fold change” value (50 µM) of the same target?
A: -0.143

Q: With “NCDN_Q9UBB6-2_5_ASDCEPALNQAEGR (UniProt Q9UBB6)” as the target, how does the “probe-labelled cysteine peptide fold change” value (10 µM) read?
A: -0.0631

Q: What about the “probe-labelled cysteine peptide fold change” value (50 µM) of the same target?
A: 0.014

Q: For “NUP210_Q8TEM1_962_GVAMVHPLLPGSSTIMIHDLCLVFPAPAK (UniProt Q8TEM1)”, which “probe-labelled cysteine peptide fold change” value (10 µM) is on record?
A: 0.115

Q: And the “probe-labelled cysteine peptide fold change” value (50 µM)?
A: 0.281

Q: Which “probe-labelled cysteine peptide fold change” value (10 µM) does the source give for “PALD1_Q9ULE6_118_MDVLGTVGSCGAPNFR (UniProt Q9ULE6)” here?
A: -0.214

Q: What about the “probe-labelled cysteine peptide fold change” value (50 µM) of the same target?
A: 0.00454

Q: Which results are given for “NPEPL1_Q8NDH3_414_CGDLVHPLVYCPELHFSEFTSAVADMK (UniProt Q8NDH3)”?
A: probe-labelled cysteine peptide fold change (10 µM): -0.0627; probe-labelled cysteine peptide fold change (50 µM): -0.0815

Q: How did the “probe-labelled cysteine peptide fold change” value (10 µM) turn out when “NAA10_P41227_17+21_NARPEDLMNMQHCNLLCLPENYQMK (UniProt P41227)” was run?
A: -0.179

Q: What about the “probe-labelled cysteine peptide fold change” value (50 µM) of the same target?
A: -0.636

Q: What does the source list for “OSBPL11_Q9BXB4_34_NSSCGGGISSSSSSR (UniProt Q9BXB4)”?
A: probe-labelled cysteine peptide fold change (10 µM): -0.246; probe-labelled cysteine peptide fold change (50 µM): -1.2

Q: What does the source list for “NFX1_Q12986_615_TCMDPVPSCGK (UniProt Q12986)”?
A: probe-labelled cysteine peptide fold change (10 µM): -0.151; probe-labelled cysteine peptide fold change (50 µM): -0.233

Q: How did the “probe-labelled cysteine peptide fold change” value (10 µM) turn out when “PARP10_Q53GL7_983_YDSAVDCICQPSIFVIFHDTQALPTHLITCEHVPR (UniProt Q53GL7)” was run?
A: -0.38

Q: And the “probe-labelled cysteine peptide fold change” value (50 µM)?
A: -1.65

Q: What does the source list for “P4HB_P07237_397+400_KNVFVEFYAPWCGHCK (UniProt P07237)”?
A: probe-labelled cysteine peptide fold change (10 µM): -0.713; probe-labelled cysteine peptide fold change (50 µM): -1.7

Q: “NOSIP_Q9Y314_185_TVTCPMSGKPLR (UniProt Q9Y314)” was tested. Which “probe-labelled cysteine peptide fold change” value (10 µM) did it give?
A: -0.00821

Q: And the “probe-labelled cysteine peptide fold change” value (50 µM)?
A: -1.11

Q: How did the “probe-labelled cysteine peptide fold change” value (10 µM) turn out when “NFXL1_Q6ZNB6_705_AGPECLHCEEGCSK (UniProt Q6ZNB6)” was run?
A: -0.0128

Q: And the “probe-labelled cysteine peptide fold change” value (50 µM)?
A: -0.0864

Q: Which results are given for “MYO19_Q96H55_755_VFMTDSMLELLECGR (UniProt Q96H55)”?
A: probe-labelled cysteine peptide fold change (10 µM): -0.495; probe-labelled cysteine peptide fold change (50 µM): -1.33

Q: With “NMT2_O60551_251_KMVEINFLCVHK<|>NMT1_P30419_249_KMVEINFLCVHK (UniProt P30419+O60551)” as the target, how does the “probe-labelled cysteine peptide fold change” value (10 µM) read?
A: -0.0324

Q: And the “probe-labelled cysteine peptide fold change” value (50 µM)?
A: -0.335

Q: Which “probe-labelled cysteine peptide fold change” value (10 µM) does the source give for “NCAPH_Q15003_418_TMCPLLSMKPGEYSYFSPR (UniProt Q15003)” here?
A: -0.315

Q: And the “probe-labelled cysteine peptide fold change” value (50 µM)?
A: -1.3

Q: With “NUF2_Q9BZD4_111_VNDFETADILCPK (UniProt Q9BZD4)” as the target, how does the “probe-labelled cysteine peptide fold change” value (10 µM) read?
A: -0.148

Q: And the “probe-labelled cysteine peptide fold change” value (50 µM)?
A: -0.234

Q: What does the source list for “NCOR1_O75376_987_QEQIDLECR (UniProt O75376)”?
A: probe-labelled cysteine peptide fold change (10 µM): -0.0519; probe-labelled cysteine peptide fold change (50 µM): 0.329

Q: With “NAMPT_P43490_397_DLLNCSFK (UniProt P43490)” as the target, how does the “probe-labelled cysteine peptide fold change” value (10 µM) read?
A: 0.116

Q: And the “probe-labelled cysteine peptide fold change” value (50 µM)?
A: -0.122

Q: For “NECTIN1_Q15223_172_VLVATCTSANGKPPSVVSWETR (UniProt Q15223)”, which “probe-labelled cysteine peptide fold change” value (10 µM) is on record?
A: -0.213

Q: And the “probe-labelled cysteine peptide fold change” value (50 µM)?
A: -2.04

Q: Which results are given for “NLE1_Q9NVX2_152_FWDLSTETPHFTCK (UniProt Q9NVX2)”?
A: probe-labelled cysteine peptide fold change (10 µM): 0.126; probe-labelled cysteine peptide fold change (50 µM): 0.171

Q: With “OPA1_O60313_801_CNEEHPAYLASDEITTVR (UniProt O60313)” as the target, how does the “probe-labelled cysteine peptide fold change” value (10 µM) read?
A: -0.225

Q: And the “probe-labelled cysteine peptide fold change” value (50 µM)?
A: -0.156

Q: For “P4HB_P07237_53+56_YLLVEFYAPWCGHCK (UniProt P07237)”, which “probe-labelled cysteine peptide fold change” value (10 µM) is on record?
A: -1.18

Q: What about the “probe-labelled cysteine peptide fold change” value (50 µM) of the same target?
A: -1.92

Q: How did the “probe-labelled cysteine peptide fold change” value (10 µM) turn out when “PAN3_Q58A45_838_DHLFHQVTEAGAPWIDLSHIISCLNK (UniProt Q58A45)” was run?
A: 0.00674

Q: What about the “probe-labelled cysteine peptide fold change” value (50 µM) of the same target?
A: 0.439

Q: With “NAIP_Q13075_1335_HFTECIK (UniProt Q13075)” as the target, how does the “probe-labelled cysteine peptide fold change” value (10 µM) read?
A: 0.0839

Q: What about the “probe-labelled cysteine peptide fold change” value (50 µM) of the same target?
A: -0.266

Q: With “P3H1_Q32P28_123_CLGPPAAHSLSEEMELEFR (UniProt Q32P28)” as the target, how does the “probe-labelled cysteine peptide fold change” value (10 µM) read?
A: 0.362

Q: What about the “probe-labelled cysteine peptide fold change” value (50 µM) of the same target?
A: 0.0519

Q: How did the “probe-labelled cysteine peptide fold change” value (10 µM) turn out when “PA2G4_Q9UQ80_87_GIAFPTSISVNNCVCHFSPLK (UniProt Q9UQ80)” was run?
A: 0.196

Q: And the “probe-labelled cysteine peptide fold change” value (50 µM)?
A: -0.0395

Q: With “NUMA1_Q14980_1907_NSFYMGTCQDEPEQLDDWNR (UniProt Q14980)” as the target, how does the “probe-labelled cysteine peptide fold change” value (10 µM) read?
A: -0.0197

Q: And the “probe-labelled cysteine peptide fold change” value (50 µM)?
A: -0.403

Q: With “NUDT16L1_Q9BRJ7_88_VLGLGLGCLR (UniProt Q9BRJ7)” as the target, how does the “probe-labelled cysteine peptide fold change” value (10 µM) read?
A: -0.287

Q: What about the “probe-labelled cysteine peptide fold change” value (50 µM) of the same target?
A: -1.6

Q: “NCAPD2_Q15021_767_VACCPLER (UniProt Q15021)” was tested. Which “probe-labelled cysteine peptide fold change” value (10 µM) did it give?
A: -0.647

Q: What about the “probe-labelled cysteine peptide fold change” value (50 µM) of the same target?
A: -6.74

Q: Which results are given for “NOC2L_Q9Y3T9_585_VQENSAYICSR (UniProt Q9Y3T9)”?
A: probe-labelled cysteine peptide fold change (10 µM): -0.398; probe-labelled cysteine peptide fold change (50 µM): -1.67

Q: Which results are given for “P3H1_Q32P28_483_VVMDGVISDHECQELQR (UniProt Q32P28)”?
A: probe-labelled cysteine peptide fold change (10 µM): 0.0375; probe-labelled cysteine peptide fold change (50 µM): 0.105

Q: Which “probe-labelled cysteine peptide fold change” value (10 µM) does the source give for “NT5DC1_Q5TFE4_119_HFLSDTGMACR (UniProt Q5TFE4)” here?
A: -0.525

Q: And the “probe-labelled cysteine peptide fold change” value (50 µM)?
A: -1.75

Q: How did the “probe-labelled cysteine peptide fold change” value (10 µM) turn out when “MYO9B_Q13459_1279_SKPCGSPR (UniProt Q13459)” was run?
A: -0.389

Q: And the “probe-labelled cysteine peptide fold change” value (50 µM)?
A: -1.2

Q: Which results are given for “OCRL_Q01968_370_FVFHNTTFCIVNSHLAAHVEDFER (UniProt Q01968)”?
A: probe-labelled cysteine peptide fold change (10 µM): 0.205; probe-labelled cysteine peptide fold change (50 µM): 0.4

Q: Which “probe-labelled cysteine peptide fold change” value (10 µM) does the source give for “NUP133_Q8WUM0_1037_QLNLSAMPVLTAPQLIGLYICEENRR (UniProt Q8WUM0)” here?
A: -0.0647

Q: What about the “probe-labelled cysteine peptide fold change” value (50 µM) of the same target?
A: -0.151

Q: For “NDUFB7_P17568_90_HDWDYCEHR (UniProt P17568)”, which “probe-labelled cysteine peptide fold change” value (10 µM) is on record?
A: -0.0995

Q: What about the “probe-labelled cysteine peptide fold change” value (50 µM) of the same target?
A: 0.0691

Q: Which results are given for “PANK4_Q9NVE7_513_EHCLNEFNFPDPYSK (UniProt Q9NVE7)”?
A: probe-labelled cysteine peptide fold change (10 µM): -0.0863; probe-labelled cysteine peptide fold change (50 µM): -0.358

Q: With “NIT2_Q9NQR4_153_VGLGICYDMR (UniProt Q9NQR4)” as the target, how does the “probe-labelled cysteine peptide fold change” value (10 µM) read?
A: -0.849

Q: What about the “probe-labelled cysteine peptide fold change” value (50 µM) of the same target?
A: -3
